In the supplement of paper PMC8728848:
Some of the results follow.

Key:
Experiment in all cases: glycan array binding signal (z-score within array); higher = stronger binding
Details in all cases: glycan notation: IUPAC condensed, linker removed
[1] = target: Neu5Ac(a2-3)Gal(b1-4)GlcNAc(b1-3)Gal(b1-4)[Fuc(a1-3)]GlcNAc
How it was run: (§1)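 Negative Z-scores can be read as non-binding. The Z-score is calculated within each array and then averaged across arrays of one protein sequence at different concentrations or buffers and across linkers. Arrays, 3228 in all, were curated from the Consortium for Functional Glycomics database and kept only where the protein sequence was available.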

[2] = target: Neu5Ac(a2-3)Gal(b1-4)GlcNAc(b1-6)[Gal(b1-3)]GalNAc
How it was run: as §1

[3] = target: Neu5Ac(a2-3)Gal(b1-4)GlcNAc6S
How it was run: as §1

[4] = target: Neu5Ac(a2-3)Gal(b1-4)[Fuc(a1-3)]GlcNAc
How it was run: as §1

[5] = target: Neu5Ac(a2-3)Gal(b1-4)[Fuc(a1-3)]GlcNAc(b1-3)Gal
How it was run: as §1

[6] = target: Neu5Ac(a2-3)Gal(b1-4)[Fuc(a1-3)]GlcNAc(b1-3)Gal(b1-4)GlcNAc
How it was run: as §1

[7] = target: Neu5Ac(a2-3)Gal(b1-4)[Fuc(a1-3)]GlcNAc(b1-3)Gal(b1-4)[Fuc(a1-3)]GlcNAc(b1-3)Gal(b1-4)[Fuc(a1-3)]GlcNAc
How it was run: as §1

[8] = target: Neu5Ac(a2-3)Gal(b1-4)[Fuc(a1-3)]GlcNAc6S
How it was run: as §1

[9] = target: Neu5Ac(a2-3)Gal6S(b1-4)GlcNAc
How it was run: as §1

[10] = target: Neu5Ac(a2-3)Gal6S(b1-4)[Fuc(a1-3)]GlcNAc
How it was run: as §1

Neu5Ac(a2-3)GalNAc = target: Neu5Ac(a2-3)GalNAc
How it was run: as §1

[11] = target: Neu5Ac(a2-3)GalNAc(b1-4)GlcNAc
How it was run: as §1

[12] = target: Neu5Ac(a2-3)[GalNAc(b1-4)]Gal(b1-4)Glc
How it was run: as §1

[13] = target: Neu5Ac(a2-3)[GalNAc(b1-4)]Gal(b1-4)GlcNAc
How it was run: as §1

[14] = target: Neu5Ac(a2-3)[Neu5Ac(a2-6)]GalNAc
How it was run: as §1

[15] = target: Neu5Ac(a2-6)Gal(b1-4)GlcNAc
How it was run: as §1

[16] = target: Neu5Ac(a2-6)Gal(b1-4)GlcNAc(b1-2)Man(a1-3)[Neu5Ac(a2-6)Gal(b1-4)GlcNAc(b1-2)Man(a1-6)]Man(b1-4)GlcNAc(b1-4)GlcNAc
How it was run: as §1

[17] = target: Neu5Ac(a2-6)Gal(b1-4)GlcNAc(b1-3)Gal(b1-4)GlcNAc
How it was run: as §1

[18] = target: Neu5Ac(a2-6)Gal(b1-4)GlcNAc(b1-3)Gal(b1-4)[Fuc(a1-3)]GlcNAc(b1-3)Gal(b1-4)[Fuc(a1-3)]GlcNAc
How it was run: as §1

[19] = target: Neu5Ac(a2-6)Gal(b1-4)GlcNAc6S
How it was run: as §1

Neu5Ac(a2-6)GalNAc = target: Neu5Ac(a2-6)GalNAc
How it was run: as §1

[20] = target: Neu5Ac(a2-6)GalNAc(b1-4)GlcNAc
How it was run: as §1

Neu5Ac(a2-8)Neu5Ac = target: Neu5Ac(a2-8)Neu5Ac
How it was run: as §1

[21] = target: Neu5Ac(a2-8)Neu5Ac(a2-3)Gal(b1-4)Glc
How it was run: as §1

[22] = target: Neu5Ac(a2-8)Neu5Ac(a2-3)[GalNAc(b1-4)]Gal(b1-4)Glc
How it was run: as §1

[23] = target: Neu5Ac(a2-8)Neu5Ac(a2-8)Neu5Ac
How it was run: as §1

[24] = target: Neu5Ac(a2-8)Neu5Ac(a2-8)Neu5Ac(a2-3)Gal(b1-4)Glc
How it was run: as §1

[25] = target: Neu5Ac(a2-8)Neu5Ac(a2-8)Neu5Ac(a2-3)[GalNAc(b1-4)]Gal(b1-4)Glc
How it was run: as §1

[26] = target: Neu5Ac(a2-8)Neu5Ac(a2-8)Neu5Ac(a2-8)Neu5Ac(a2-3)[GalNAc(b1-4)]Gal(b1-4)Glc
How it was run: as §1

[27] = target: Neu5Ac9Ac(a2-6)Gal(b1-4)GlcNAc
How it was run: as §1

[28] = target: Neu5Gc(a2-3)Gal(b1-3)GlcNAc
How it was run: as §1

[29] = target: Neu5Gc(a2-3)Gal(b1-3)[Fuc(a1-4)]GlcNAc
How it was run: as §1

Neu5Gc(a2-3)Gal(b1-4)Glc = target: Neu5Gc(a2-3)Gal(b1-4)Glc
How it was run: as §1

[30] = target: Neu5Gc(a2-3)Gal(b1-4)GlcNAc
How it was run: as §1

[31] = target: Neu5Gc(a2-3)Gal(b1-4)[Fuc(a1-4)]GlcNAc
How it was run: as §1

[32] = target: Neu5Gc(a2-6)Gal(b1-4)GlcNAc
How it was run: as §1

Neu5Gc(a2-6)GalNAc = target: Neu5Gc(a2-6)GalNAc
How it was run: as §1

B1: FBG4 (Homo sapiens), Q96EF6 (protein)
chain: MGARLSRRRLPADPSLALDALPPELLVQVLSHVPPRSLVTRCRPVCRAWRDIVDGPTVWLLQLARDRSAEGRALYAVAQRCLPSNEDKEEFPLCALARYCLRAPFGRNLIFNSCGEQGFRGWEVEHGGNGWAIEKNLTPVPGAPSQTCFVTSFEWCSKRQLVDLVMEGVWQELLDSAQIEICVADWWGARENCGCVYQLRVRLLDVYEKEVVKFSASPDPVLQWTERGCRQVSHVFTNFGKGIRYVSFEQYGRDVSSWVGHYGALVTHSSVRVRIRLS
glycan array binding signal (z-score) [1]: -0.358 | glycan array binding signal (z-score) [2]: -0.301 | glycan array binding signal (z-score) [3]: 0.103 | glycan array binding signal (z-score) [4]: -0.473 | glycan array binding signal (z-score) [5]: -0.522 | glycan array binding signal (z-score) [6]: -0.355 | glycan array binding signal (z-score) [7]: -0.292 | glycan array binding signal (z-score) [8]: -0.112 | glycan array binding signal (z-score) [9]: 0.228 | glycan array binding signal (z-score) [10]: -0.423 | glycan array binding signal (z-score) (Neu5Ac(a2-3)GalNAc): -0.555 | glycan array binding signal (z-score) [11]: -0.5 | glycan array binding signal (z-score) [12]: -0.245 | glycan array binding signal (z-score) [13]: -0.502 | glycan array binding signal (z-score) [14]: -0.362 | glycan array binding signal (z-score) [15]: -0.514 | glycan array binding signal (z-score) [16]: 0.219 | glycan array binding signal (z-score) [17]: -0.508 | glycan array binding signal (z-score) [18]: -0.485 | glycan array binding signal (z-score) [19]: 0.175 | glycan array binding signal (z-score) (Neu5Ac(a2-6)GalNAc): -0.562 | glycan array binding signal (z-score) [20]: -0.529 | glycan array binding signal (z-score) (Neu5Ac(a2-8)Neu5Ac): -0.291 | glycan array binding signal (z-score) [21]: -0.41 | glycan array binding signal (z-score) [22]: -0.266 | glycan array binding signal (z-score) [23]: -0.213 | glycan array binding signal (z-score) [24]: -0.394 | glycan array binding signal (z-score) [25]: -0.281 | glycan array binding signal (z-score) [26]: -0.316 | glycan array binding signal (z-score) [27]: 0.17 | glycan array binding signal (z-score) [28]: -0.432 | glycan array binding signal (z-score) [29]: -0.463 | glycan array binding signal (z-score) (Neu5Gc(a2-3)Gal(b1-4)Glc): -0.37 | glycan array binding signal (z-score) [30]: -0.568 | glycan array binding signal (z-score) [31]: -0.439 | glycan array binding signal (z-score) [32]: -0.334 | glycan array binding signal (z-score) (Neu5Gc(a2-6)GalNAc): -0.533
